Test results from patent CN111484558A (UNIV SHANGHAI JIAOTONG, dated 2020).

Target: T1, 人CD47 (on CHO-HuCD47 cells and on Raji cells) (human)
T1 construct: whole, on cells; also called 人源CD47; CHO-HuCD47细胞
Assay: competition flow cytometry on Raji cells; competitor SIRPα-Ig-Biotin, APC-streptavidin

binding result: binds
B1: 信号调节蛋白α片段-抗FcRn单链抗体融合蛋白(SIRPα-F8) (other)
chain: [left out - about 120 residues]KPSKLGGGGSGGGGSGGGGSQAVLTQPPSASGTPGQRVTIS[left out - about 80 residues]LFGGGTKLTVLGSRGGGGSGGGGSGGGGSLEMAQVQLVQSGAEVKKPGASVKVSCKTSGYTFTGYYIHWVRQAPGQGLEWMGHISPHSGGTDYAQKFQGRVTMTRDTSISTAYMELSRLRSDDTAVYYCARGVYGMDRWGQGTLVTVSSTSGQAGQHHHHHHGLNDIFEAQKIEWHE
notes: Expressed in HEK293-6E cells
